Reference: PubChem BioAssay AID651820 (National Center for Advancing Translational Sciences (NCATS), 2012)
Among all 340,000 compounds or so, about 12,000 (3.5%) were called active. Inconclusive means that the source gave no clear call. Such entries were picked first, then a sample of the others. The call rests on the fitted dose curve; in most records, active means well fitted inhibition curve with a large enough effect; inconclusive means small, poorly fitted or top-dose-only effect, or another doubt; inactive means no such curve, though single readings can be large or run the other way. No potency is given beside an inconclusive call; the fits are too rough.

assay: qHTS Assay for Inhibitors of Hepatitis C Virus (HCV); details: Huh7.5.1 HCVcc-Cre (HCVcc is cell-culture hepatitis C virus) infection, luciferase reporter, 44 h; activity change, negative = inhibition: at 41.8 µM (top of the series)
In short: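 Cells seeded at 1,000/well and cultured 4 h, then compounds added followed by HCVcc-Cre virus (~0.5 moi). After 44 h further culture, luciferase substrate was added, plates held 15 min at room temperature, and luminescence read for 15 sec.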
On the % scale 0 is the no-effect control and ±100 the full control effect; potency means the concentration at half of the fitted maximal effect; tags describe the fitted curve by direction and shape.

Structure (SMILES)	Potency	activity change, negative = inhibition
CNC(=O)c1ccccc1Nc1ccc(SC(F)F)cc1	inconclusive [inhibitor, single point]	
Cc1noc(C)c1CSCC(=O)Nc1ccc(OC(F)F)c(Cl)c1	inactive	
CC(NC(=O)CCC(=O)N1CCN(S(=O)(=O)c2ccc(Cl)cc2)CC1)c1ccccc1 (configuration not stated)	inconclusive [inhibitor, single point]	
Clc1ccccc1Cn1nc(-c2ccccc2)nc1-c1ccccc1	inactive	
CCN(CC(=O)Nc1ccc(C(=O)Nc2ccc(OC)cc2)cc1)Cc1nc2ccccc2c(=O)[nH]1	inconclusive [inhibitor, partial curve]	
COc1ccccc1C(=O)NCC1(c2ccccc2)CCCC1	inconclusive [inhibitor, single point]	
CN(C)CCCNC(=O)/C=C/c1ccc(OCc2c(F)cccc2Cl)cc1	active: 2.82 µM	
O=C1c2cccc(Cl)c2C(=O)c2c1cccc2N1CCCC1	inconclusive [inhibitor, single point]	
N#CC1=C(C2CC2)CC(c2ccccc2)C(C#N)=C1N (configuration not stated)	inconclusive [inhibitor, full curve]	
Oc1ccc(Cl)cc1C1=NNC(c2cccs2)C1 (configuration not stated)	inconclusive [inhibitor, partial curve]	
Cc1ccc2nc(-c3ccc(NC(=O)CCN4C(=O)c5ccccc5C4=O)cc3)sc2c1	inactive	
COC(C(=O)Nc1ccc(S(=O)(=O)N2CCCCC2)cc1)c1ccccc1 (configuration not stated)	inactive	
COc1ccc(-c2cc(C(=O)Nc3ccc(C)cc3)no2)cc1	inactive	
Cc1cc(NC(=O)CSc2nnc3c(C)cc4c(C)ccc(C)c4n23)no1	inconclusive [inhibitor, single point]	
CC(C)CN(C(=O)Cn1ccccc1=O)C1CCS(=O)(=O)C1 (configuration not stated)	inactive	
Cc1cc(Cl)c(S(=O)(=O)N2CCN(c3ccccn3)CC2)cc1OCC(=O)NC1CCCCC1	active: 10 µM	
CN(CCOc1ccc(Br)cc1)CC(=O)Nc1cccc(S(=O)(=O)NC2=NCCC2)c1	inconclusive [inhibitor, single point]	
CCc1ccc(/C=C/C(=O)c2ccc(N3CCOCC3)cc2)cc1	inconclusive [inhibitor, single point]	
O=C1C=CC(=O)C(CNc2ccc(C(=O)OCc3ccccc3)cc2)=C1	active: 10 µM	
COc1ccc(C(C)=O)cc1CSc1ccccn1	inconclusive [inhibitor, single point]	
CCc1cccc(NC(=O)C2CCCC2)c1	inactive	
CCOc1ccc(N(CC(=O)Nc2ccccc2OC)S(=O)(=O)c2ccccc2)cc1	inconclusive [inhibitor, partial curve]	
COc1ccc(NC(=O)CSc2ccc3c(c2)OCCO3)cc1OC	inconclusive [inhibitor, single point]	
Cc1oc(-c2ccc(-c3ccccc3)cc2)nc1CN(C)C1CCOC1 (configuration not stated)	inconclusive [inhibitor, single point]	

Structure (SMILES)	Potency	activity change, negative = inhibition
Cc1cccc(OCCC(=O)Nc2ccc(C)c(S(=O)(=O)N3CCOCC3)c2)c1	active: 12.6 µM	
Cc1cc2c(cc1C)C(c1ccccc1OC(C)C)CC(=O)N2 (configuration not stated)	active: 8.91 µM	
Cc1noc(NS(=O)(=O)c2ccc(NC(=O)CCn3c(=O)oc4ccccc43)cc2)c1C	inactive	
CC1(c2ccccc2Cl)NC(=O)N(CC(=O)Nc2ccc(N3CCCCC3)cc2)C1=O (configuration not stated)	inconclusive [inhibitor, partial curve]	
Cc1nc2nc(SCC(=O)N3CCOCC3)nn2c(C)c1Cc1c(F)cccc1Cl	inconclusive [inhibitor, partial curve]	
c1ccc(Nc2nc(-c3ccncc3)cs2)nc1	active: 11.2 µM	
COc1ccc(NS(=O)(=O)c2cccc(C(=O)NN=Cc3ccc(OC)c(O)c3)c2)cc1	inconclusive [inhibitor, partial curve]	
CCC(C)c1ccc(N(C(=O)c2ccco2)C(C(=O)NC2CCCC2)c2cccnc2)cc1 (configuration not stated)	inconclusive [inhibitor, single point]	
Cc1cc(NC(=O)CCS(=O)(=O)c2nc(-c3ccccc3)cc(C(F)(F)F)n2)no1	active: 10 µM	
CCCC(=O)Nc1ccc(Cl)c(NC(=O)c2ccco2)c1	inconclusive [inhibitor, partial curve]	
Cc1ccc(N=C2N=C(N)c3ccccc32)cc1C	inconclusive [inhibitor, single point]	
COc1ccc(S(=O)(=O)Nc2cc(Sc3ncn[nH]3)c(O)c3ccccc23)cc1	active: 31.6 µM	
O=C(NCCc1ccccc1)c1cc2ccccc2oc1=O	inactive	
O=C(NCCCN1CCN(c2cccc(Cl)c2)CC1)c1cccc(N2CCCC2=O)c1	inconclusive [inhibitor, partial curve]	
CC(C)Oc1ccc(C(=O)N2CCN(C(=O)c3ccco3)CC2)cc1	inactive	
COc1ccc(/C=N/NC(=S)Nc2ccccc2)cc1COc1ccc(F)cc1	inactive	
CCOC(=O)C1CCCCN1Cc1ccc(OC)c(OC)c1 (configuration not stated)	inconclusive [inhibitor, single point]	
COc1ccc(CC(=O)NC(=S)Nc2ccc(S(N)(=O)=O)cc2)cc1	inactive	
Cc1c(O)c(CN2CCCCC2)cc2c3c(c(=O)oc12)CCC3	inconclusive [inhibitor, single point]	
Cc1cnc(NC(=O)CCCc2nc3ccccc3s2)s1	active: 2.82 µM	
O=C(NC1CCCCCC1)c1cccc(COCC(F)(F)F)c1	inconclusive [inhibitor, single point]	
CCC1=C(OC(=O)N(CC)CC)N2C(=O)OC(=NCC3CC3)[C@]2(C)[C@H]2C1=CC[C@H]1C(=O)N(CC)C(=O)[C@H]12		inactive: 16% [at 8.37 µM]
CN1/C(=C\C(=O)c2cccs2)Sc2ccccc21	inconclusive [inhibitor, partial curve]	
CCC(=O)NC(=S)Nc1ccc(NC(=O)c2ccc(C)c([N+](=O)[O-])c2)cc1	inconclusive [inhibitor, partial curve]	

Structure (SMILES)	Potency	activity change, negative = inhibition
Clc1ccccc1-c1nc(-c2ccc(Br)o2)no1	inconclusive [inhibitor, single point]	
CCOC(=O)c1c(C)[nH]c(C(=O)OCC(=O)Nc2ccc(OC)c(Cl)c2)c1C	inconclusive [inhibitor, partial curve]	
c1ccc(CNCc2ccco2)cc1	inactive	
N#Cc1cnn(-c2nc(SCc3ccccc3)nc3sc4c(c23)CCCC4)c1N	inactive	
c1ccc(CNc2ncnc3c2cnn3Cc2ccccc2)cc1	inconclusive [inhibitor, single point]	
O=C(Nc1cc(C(F)(F)F)ccc1N1CCOCC1)c1ccc(F)cc1	inconclusive [inhibitor, single point]	
COC(=O)CCCCCCCCCC[N+]1(C)CCCCC1	inactive	
N#CC1=C(SCC(=O)NC23CC4CC(CC(C4)C2)C3)NC(=O)C(C#N)C12CCCCC2 (configuration not stated)	inconclusive [inhibitor, single point]	
CCC(=O)N1CCN(c2ccc(Cl)cc2NC(=O)c2ccc3c(c2)OCCO3)CC1	inactive	
CC(=O)Nc1ccc(SC[C@H](Cc2ccccc2)N2CC[C@@H](C)CCC2=O)cc1	inactive	
COc1ccc(CNC2CCN(Cc3ccccc3)CC2)cc1	inconclusive [inhibitor, partial curve]	
O=S(=O)(c1ccccc1)c1nc(-c2ccc(Cl)cc2)oc1NCCCN1CCOCC1	inconclusive [inhibitor, single point]	
CCOc1ccc(C(=O)c2cc([N+](=O)[O-])ccc2N2CCOCC2)cc1	inactive	
CCNC(=O)/C(C#N)=C/c1c(N(Cc2ccccc2)Cc2ccccc2)nc2ccccn2c1=O	active: 11.2 µM	
COc1c(O)c(O)c2oc(-c3ccccc3)cc(=O)c2c1OC	inconclusive [inhibitor, partial curve]	
COc1ccc(C(C(=O)NC2CCCCC2)N(Cc2cccs2)C(=O)Cc2c[nH]c3ccccc23)cc1OC (configuration not stated)	inconclusive [inhibitor, single point]	
O=c1[nH][nH]c2cc([N+](=O)[O-])ccc12	inconclusive [inhibitor, single point]	
CCOc1ccc(NC(=O)CN(C)C(=O)c2ccc3[nH]c4c(c3c2)CC(C)CC4)cc1OCC (configuration not stated)	active: 0.562 µM	
CCC1Oc2ccc(C)cc2N(CC(=O)NCCN2CCCCCC2)C1=O (configuration not stated)	inconclusive [inhibitor, single point]	
Cn1nnnc1SCC(=O)N1c2ccccc2Sc2ccc(Cl)cc21	inconclusive [inhibitor, single point]	
c1ccc(-c2nc(N3CCN(c4ccccc4)CC3)nc(-n3ccnc3)n2)cc1	inconclusive [inhibitor, single point]	
CCC(C)(C)n1nnnc1C(c1cc2ccc(OC)cc2[nH]c1=O)N1CCN(C2CCCCC2)CC1 (configuration not stated)	inconclusive [inhibitor, partial curve]	
CN1/C(=C\C(=O)CSc2nnc(NCc3ccccc3)s2)C(C)(C)c2ccccc21	inconclusive [inhibitor, single point]	
CCC1CN(C(=O)NCc2ccccc2)c2cc(C)ccc2O1 (configuration not stated)	inactive	
